# According to PMC2809015 (Biochemistry, 2009):
# B1: IscU, FeS cluster assembly scaffold protein (natural protein, E. coli, UniProt P0ACD4 1-128, looked up)
# chain: MAYSEKVIDHYENPRNVGSFDNNDENVGSGMVGAPACGDVMKLQIKVNDEGIIEDARFKTYGCGSAIASSSLVTEWVKGKSLDEAQAIKNTDIAEELELPPVKIHCSILAEDAIKAAIADYKSKREAK
# Target: T1, HscA, Hsp70-class molecular chaperone of the isc operon (E. coli, UniProt P0A6Z1 1-616)
# T1 sequence (looked up): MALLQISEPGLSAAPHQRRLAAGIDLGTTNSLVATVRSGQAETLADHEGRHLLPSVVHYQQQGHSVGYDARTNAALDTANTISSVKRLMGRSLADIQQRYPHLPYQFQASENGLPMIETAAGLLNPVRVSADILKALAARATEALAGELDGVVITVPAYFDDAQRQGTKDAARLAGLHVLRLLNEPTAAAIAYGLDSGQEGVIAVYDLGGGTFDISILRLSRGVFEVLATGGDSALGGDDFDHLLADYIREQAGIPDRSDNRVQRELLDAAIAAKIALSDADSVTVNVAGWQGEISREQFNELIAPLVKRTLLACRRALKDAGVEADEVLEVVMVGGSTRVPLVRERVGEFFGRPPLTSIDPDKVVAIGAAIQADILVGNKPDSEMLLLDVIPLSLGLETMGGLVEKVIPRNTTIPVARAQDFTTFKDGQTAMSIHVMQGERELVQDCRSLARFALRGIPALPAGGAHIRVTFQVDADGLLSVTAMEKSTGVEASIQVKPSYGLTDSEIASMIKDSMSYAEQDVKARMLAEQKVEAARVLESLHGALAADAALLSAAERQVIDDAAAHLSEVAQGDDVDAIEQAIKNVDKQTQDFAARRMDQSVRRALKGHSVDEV
# Experiment: molecular weight filtration assay
binder,measurement,value
B1,Kd,10.3 ± 2.5 µM
